Measurements published in PubChem BioAssay AID1476 (National Center for Advancing Translational Sciences (NCATS), 2009).
About 4,500 (2.2%) of roughly 200,000 compounds were called active. The shares of active, inactive and inconclusive entries below differ from those in the screen. The call rests on the fitted dose curve; in most records, active means well fitted inhibition curve with a large enough effect; inconclusive means small, poorly fitted or top-dose-only effect, or effect the other way; inactive means flat fitted curve, though single readings scatter. Potencies of inconclusive entries are doubtful fits and often do not repeat.

Each molecule was assayed against Cruzipain (Trypanosoma cruzi) (UniProt P25779) (assay: qHTS Assay for Promiscuous and Specific Inhibitors of Cruzain (without detergent)). Conditions: purified cruzain, Z-FR-AMC fluorescence, no detergent.
Outline: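 Detergent-free condition (0.00005% Triton X-100) in acetate buffer pH 5.5 with DTT. 1.5 nM enzyme and compound were pre-mixed 15 min, then 2 uM Z-FR-AMC substrate added; reaction progress from fluorescence change between first and third reads (60 s).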
Further: nearly all actives have a fitted effect of over 40% in size.
Potency means the concentration at half of the fitted maximal effect; tags describe the fitted curve by direction and shape.
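Wherever max response, negative = inhibition is given: plate controls were enzyme without inhibitor for no effect and buffer without enzyme for full effect.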

Sequence of UniProt P25779 (P25779 whole entry, looked up): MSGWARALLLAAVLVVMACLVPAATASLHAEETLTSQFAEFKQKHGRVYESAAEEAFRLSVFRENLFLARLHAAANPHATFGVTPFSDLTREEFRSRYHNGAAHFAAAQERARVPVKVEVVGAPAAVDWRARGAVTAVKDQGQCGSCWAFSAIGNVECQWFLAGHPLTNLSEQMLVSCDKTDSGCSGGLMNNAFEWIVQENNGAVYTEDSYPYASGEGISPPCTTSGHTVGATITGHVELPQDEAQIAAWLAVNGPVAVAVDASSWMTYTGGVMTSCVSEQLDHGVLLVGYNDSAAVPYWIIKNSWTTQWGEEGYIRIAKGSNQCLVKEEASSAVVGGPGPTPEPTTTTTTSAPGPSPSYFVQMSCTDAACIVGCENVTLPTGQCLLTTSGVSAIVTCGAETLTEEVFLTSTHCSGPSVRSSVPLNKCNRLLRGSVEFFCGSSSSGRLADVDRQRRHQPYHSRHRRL

SMILES | Potency | max response, negative = inhibition
Cc1nn(-c2ccccc2)c(Cl)c1/C=C1/C(=N)N2N=C(C(C)C)SC2=NC1=O | inconclusive: 31.6 µM [activator, single point] | –
O=c1c2ccccc2nc(SCc2ccc([N+](=O)[O-])cc2)n1-c1ccc(Cl)cc1 | active: 12.6 µM | –
CCC(Sc1nc2cc3c(cc2c(=O)n1Cc1ccco1)OCO3)C(=O)Nc1cccc(OC)c1 (centres undefined) | inconclusive: 12.6 µM [inhibitor, single point] | –
CCc1ccc(NC(=O)C2CCN(c3cc(C)nc4c(-c5ccc(Cl)cc5)c(C)nn34)CC2)cc1 | – | inactive: -7.42%
CCc1ccc(NC(=O)CSc2ccc3nnc(CCNS(=O)(=O)c4ccc(OC)cc4)n3n2)cc1 | inconclusive: 39.8 µM [activator, single point] | –
Cc1cc(OCCCSc2nc(-c3ccc(C(C)(C)C)cc3)nc3cc(=O)[nH]n23)ccc1Cl | inconclusive: 3.16 µM [inhibitor, full curve, poor fit] | –
CCOC(=O)c1c(C)n(C)c2ccc(OCC(O)Cn3nc(C)cc3C)cc12 (centres undefined) | inconclusive: 20 µM [activator, single point] | –
CCc1ccc(-c2cc(C(F)(F)F)n3nc(C(=O)Nc4c(C)nn(Cc5ccc(F)cc5)c4C)cc3n2)s1 | inconclusive: 2.51 µM [activator, full curve, poor fit] | –
COc1ccc(OCc2nnc(SCC(=O)N3c4ccccc4Sc4ccc(Cl)cc43)o2)cc1 | inconclusive: 39.8 µM [inhibitor, single point] | –
CC(C)C(c1nnnn1C1CCCCC1)N1CCc2ccccc2C1 (centres undefined) | inconclusive: 0.794 µM [inhibitor, full curve] | –
CCc1ccc2c(c1)[C@]1(C(=O)N2)[C@@H]2C(=O)N(Cc3ccccc3)C(=O)[C@@H]2[C@@H]2CCCN21 | inconclusive: 39.8 µM [activator, single point] | –
Cc1cccc(-c2nnc3n2N=C(c2ccccc2Br)CS3)c1 | inconclusive: 31.6 µM [inhibitor, single point] | –
CCCOc1ccc(NC(=O)CC2C(=O)N(c3ccccc3)C(=O)N2CCC(C)C)cc1 (centres undefined) | – | inactive: 8.58%
O=C1CC(c2ccccc2)CC(O)=C1C=NCCN1CCN(C(=O)Cc2ccccc2)CC1 (centres undefined) | inconclusive: 39.8 µM [activator, single point] | –
COc1ccc(-c2nnc(SCC(=O)Nc3ccc(Cl)cc3)n2C)cc1 | inconclusive: 39.8 µM [inhibitor, single point] | –
COC(=O)C(C)Sc1nnc2cc(C)c3cc(C)cc(C)c3n12 (centres undefined) | – | inactive: 1.17%
Cn1c(=O)[nH]c(=O)c2c1nc(NCCc1ccccc1)n2CC(O)COc1ccccc1 (centres undefined) | inconclusive: 39.8 µM [inhibitor, single point] | –
CC(=O)Nc1ccc(OCC(O)Cn2c3ccccc3c3ccccc32)cc1 (centres undefined) | inconclusive: 39.8 µM [activator, single point] | –
CCOC(=O)c1c(-c2cccc(C)c2)csc1NC(=O)C1CC=CCC1C(=O)O (centres undefined) | inconclusive: 39.8 µM [activator, single point] | –
Cc1sc(NC(=S)NC(=O)c2ccc(C(C)(C)C)cc2)c(C#N)c1C | active: 10 µM | –
COc1cc(/C=N/NC(=O)c2cncc(Br)c2)ccc1OC(=O)c1ccc2c(c1)OCO2 | inconclusive: 39.8 µM [inhibitor, single point] | –
O=C(CCCn1c(=O)[nH]c2ccccc2c1=O)NCc1ccccc1Cl | – | inactive: -2.99%

SMILES | Potency | max response, negative = inhibition
CCc1nnc(/N=C/c2c(O)n(-c3ccc(Cl)cn3)c(=O)c3ccccc23)s1 | inconclusive: 31.6 µM [activator, single point] | –
COC(=O)c1ccccc1NC(=O)/C=C/c1cc(OC)c(OC)c(OC)c1 | inconclusive: 31.6 µM [activator, single point] | –
Cc1cccc(OCC(=O)NC(C)C(=O)N/N=C/c2c(OCc3ccccc3)ccc3ccccc23)c1 (centres undefined) | active: 15.8 µM | –
CSc1cccc(NC(=O)C2CCCN(S(=O)(=O)c3ccc4c(c3)CCCN4C(C)=O)C2)c1 (centres undefined) | inconclusive: 39.8 µM [activator, single point] | –
CC(N)=NCCCC(N)C(=O)O (centres undefined) | – | inactive: -6.18%
Cc1ccc(C(=O)Cn2c(C(=O)/C=C/c3ccccc3)nc3ccccc32)cc1 | inconclusive: 39.8 µM [inhibitor, single point] | –
CC(Oc1ccc(Br)cc1)C(=O)N(Cc1nc(-c2ccccc2)no1)C(C)C (centres undefined) | inconclusive: 25.1 µM [activator, single point] | –
O=C(NCCCN1CCN(c2ccccc2)CC1)c1ccc2nc(CCc3ccccc3)oc2c1 | – | inactive: -2.45%
CCOc1ccc(OCC)c(NC(=O)C2CCCN2S(=O)(=O)c2cccc3cccnc23)c1 (centres undefined) | inconclusive: 31.6 µM [activator, single point] | –
COC(=O)C(Oc1ccc2c(-c3ccc(OC)cc3)cc(=O)oc2c1)c1ccccc1 (centres undefined) | inconclusive: 39.8 µM [inhibitor, single point] | –
O=c1[nH][nH]c(=S)c(=O)[nH]1 | – | inactive: 4.23%
C/C(=N\N1CCN(c2ccc(Cl)cc2)CC1)c1cccs1 | inconclusive: 31.6 µM [inhibitor, single point] | –
O=C(Nc1cccc(Cl)c1)Nc1ccc(Cl)cn1 | active: 25.1 µM | –
Cc1nn(-c2ccc(Cl)cc2)c(Cl)c1/C=C(\C#N)C(N)=O | – | inactive: 3.86%
O=C(Nc1c(C(=O)N2CCN(c3ccccc3F)CC2)oc2ccccc12)c1ccc(Br)o1 | inconclusive: 25.1 µM [activator, single point] | –
COc1ccc(CNC(=O)c2c(O)c3ccccc3n(C)c2=O)cc1OC | inconclusive: 31.6 µM [activator, single point] | –
Cc1cc(=O)[nH]c(N=N/C(=N/Nc2ccccc2C)c2ccccc2)n1 | inconclusive: 39.8 µM [inhibitor, single point] | –
N#Cc1cc2c(nc1SCC(=O)Nc1sc3c(c1C#N)CCC3)CCCCCC2 | inconclusive: 12.6 µM [inhibitor, single point] | –
COc1c(C)cccc1C(=O)NC(=S)Nc1ccc2c(c1)Cc1ccccc1-2 | active: 20 µM | –
COC(=O)c1ccc2c(=O)n(Cc3ccco3)c(SCC(=O)Nc3ccc(C)c(Cl)c3)nc2c1 | active: 6.31 µM | –
CN(Cc1ccccc1)c1nc2c(c(=O)[nH]c(=O)n2C)n1CCCc1ccccc1 | inconclusive: 31.6 µM [activator, single point] | –
CCc1ccc(NC(=O)c2ccc(F)c(S(=O)(=O)N3CCc4ccccc4C3)c2)cc1 | inconclusive: 7.94 µM [inhibitor, single point] | –

SMILES | Potency | max response, negative = inhibition
O=C(NC(=S)Nc1ccc(N2CCOCC2)c(Cl)c1)c1sc2ccccc2c1Cl | inconclusive: 10 µM [inhibitor, partial curve] | –
O=C(NC(NC(=O)c1ccccc1)C(=O)c1ccccc1)c1ccccc1 | inconclusive: 25.1 µM [inhibitor, single point] | –
COc1cccc(C(c2sc3nc(-c4ccco4)nn3c2O)N2CCC3(CC2)OCCO3)c1 (centres undefined) | inconclusive: 39.8 µM [activator, single point] | –
CCc1cc(=O)oc2c(C)c3c(cc12)CN(CCc1ccccc1)CO3 | – | inactive: -8.11%
O=C(CNS(=O)(=O)c1ccc2ccccc2c1)OCC(=O)c1ccc(Br)s1 | inconclusive: 39.8 µM [inhibitor, single point] | –
O=C(COC(=O)/C=C/c1cccs1)NC(c1ccccc1)c1ccccc1 | inconclusive: 39.8 µM [inhibitor, single point] | –
c1ccc(-c2cc(-c3nnc4n3N=C(c3ccc5ccccc5c3)CS4)[nH]n2)cc1 | active: 25.1 µM | –
O=C1N/C(=C/c2ccc(N3CCCC3)cc2)C(=O)N1c1ccccc1 | active: 3.16 µM | –
CCCCCCc1nc2ccccc2c(=O)n1NC(=O)c1c(O)c2c(n(CC(C)C)c1=O)CCCC2 | inconclusive: 10 µM [inhibitor, partial curve, poor fit] | –
CCC1CCCCN1CCCNC(=O)c1sc2nc(C)cc(C)c2c1-n1cccc1 (centres undefined) | – | inactive: 8.19%
CCc1cc2c(cc3c(=O)n(CC(=O)NC(C)C)nc(CC)n32)s1 | – | inactive: -8.58%
CNC(=O)c1ccc(-c2sc3nc(N4CCOCC4)c4c(c3c2N)CC(C)(C)OC4)o1 | inconclusive: 39.8 µM [activator, single point] | –
Cc1ccc2c(c1)C(c1ccccc1)N(C(=O)C(C)C)CC(=O)N2 (centres undefined) | – | inactive: 5.43%
COc1cc(C(Nc2ccccn2)c2c(NC(=O)c3ccco3)sc(C)c2C)cc(OC)c1OC (centres undefined) | inconclusive: 31.6 µM [activator, single point] | –
O=C(NCC(c1ccc2c(c1)OCO2)N1CCOCC1)C(=O)Nc1ccc(Cl)cc1 (centres undefined) | – | inactive: 1.7%
O=C(c1ccc(Br)cc1)c1cc(-c2ccccn2)c(N2CCOCC2)s1 | inconclusive: 31.6 µM [activator, single point] | –
Cc1ccccc1OCCSc1nnc(-c2ccc([N+](=O)[O-])cc2)o1 | – | inactive: 12.2%
Nc1c(C(=O)NCc2ccco2)c2nc3ccccc3nc2n1CCN1CCOCC1 | inconclusive: 31.6 µM [activator, single point] | –
O=C(Nc1ccccc1C(F)(F)F)c1cc(S(=O)(=O)N2CCC3(CC2)OCCO3)ccc1F | inconclusive: 39.8 µM [activator, single point] | –
CC(=O)c1ccc(N2CCN(C(=O)c3cc(-c4ccc5c(c4)OCO5)nc4ccccc34)CC2)cc1 | inconclusive: 15.8 µM [inhibitor, single point] | –
